± gives the standard deviation of the averaged measurements. The list shows a part of the results.
What follows are sequences tested on PfAP2-G AP2 domain (GST-tagged) (assay: gcPBM binding intensity (ln(normalized median fluorescence intensity)); higher = stronger DNA binding).
Summary of the method: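 Alexa488 anti-GST antibody, scanned at 488 nm, detected GST-tagged P. falciparum DNA-binding domains that had been expressed in E. coli and incubated for 1 h on an Agilent 4 × 180k array. The array carried primer-extended double-stranded 36-bp intergenic genomic probes and negative controls. Binding intensity is the highest Masliner-normalised natural-log median intensity across replicate spots of either orientation of each probe.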

“ATATAAATAATATAAATACACACTAAAAAAAATATA [CACACA_site542]” and “TTTATTTTCATATGAACACACATATATATATTATAA [CACACA_site2369]” are within error of each other in “gcPBM binding intensity (ln)” value: 10.07 ± 0.057 for the first, 10.2 ± 0.24 for the second.

Going from TGTTCTGAACGGTTCATGCACTTTTTTTTGTTAATT to “CTGTTTTTGTTTTAAAGTACATTGTTCAATATACAT [XGTACX_site5288]”, the “gcPBM binding intensity (ln)” value rises from 10.2 ± 0.21 to 11.1 ± 0.61.

First: TACAATGTGGATAATTGTACAAAACCGATAAGAGGG [XGTACX_site6453]
Second: TTATATACCCTAATATGTTTTATTATTATTATATAT [TGCATGCA_negctrl_site6]
The “gcPBM binding intensity (ln)” value of the first is higher: 10.8 ± 0.42 for the first, 9.945 ± 0.078 for the second.

First: TATATTCTACAAGAATTATGAATTGTCAGACCAAAT [CACACA_negctrl_site1101]
Second: TATATTATATACGTCTGTACACAAATGAGAGGTAAA [XGTACX_site5538]
The “gcPBM binding intensity (ln)” value of the first is lower: 10.2 ± 0.28 for the first, 11.5 ± 0.75 for the second.

First: ATGTTAAGAATAATTAGTACTTACATATGTATAATA [XGTACX_site4419]
Second: ATAATTTATATTCAGAAACACACGAAAAAAAAAAAT [CACACA_site1296]
The “gcPBM binding intensity (ln)” value of the first is higher: 10.9 ± 0.57 for the first, 10 ± 0.12 for the second.

Going from “AACTAAACAAAAGTTACACACATCATACGATATTAT [CACACA_site3180]” to “AGCAGAGTTACAATTTGTACGTAATTGATATAGATA [XGTACX_site4051]”, the “gcPBM binding intensity (ln)” value rises from 9.92 ± 0.057 to 11.3 ± 0.84.

First: AACATATTATCTTGTGAAAATAATATAAGTCACATT [TGCATGCA_negctrl_site339]
Second: ATATATATATATATTTGTACAGAAAATATTTTAATA [XGTACX_site3706]
The “gcPBM binding intensity (ln)” value of the first is lower: 9.98 ± 0.2 for the first, 10.9 ± 0.66 for the second.

“ACAAAATGTAAATAAACACACATATATATATATATA [CACACA_site1281]” and “TTATAAAAAAAAAAAAAAAATATATATATATATATA [XGTACX_negctrl_site592]” are within error of each other in “gcPBM binding intensity (ln)” value: 10.2 ± 0.56 for the first, 10.3 ± 1.1 for the second.

Going from “AAAAAATAATAATAAAATGAATAGATATGTATTTAT [TGCATGCA_negctrl_site210]” to “AATAATATATATTGTACACACAAAATGGGAAAAAAA [CACACA_site5100]”, the “gcPBM binding intensity (ln)” value rises from 9.65 ± 0.39 to 11.4 ± 0.81.

Compared with “ATATATATATATATGTGTACTTATAAATATATCTGT [XGTACX_site4337]”, “AAAAGAATTTAGAAGGCATGCACTTAAACATGGATA [TGCATGCA_site699]” is lower in “gcPBM binding intensity (ln)” value: 11.4 ± 0.93 for the first, 9.945 ± 0.092 for the second.

“ATAAAATATATATGCACACACATATATATTTCATAC [CACACA_site3547]” and “ACATAAAATAAATATACACACATATGTATATATTAT [CACACA_site3041]” are the same in “gcPBM binding intensity (ln)” value: 9.95 ± 0.099 for the first, 9.945 ± 0.021 for the second.

Going from “TAAATATTTTATTGTACACACTTTTTATGAATGATG [CACACA_site5694]” to “AATATTTAAAACAAATCACACATGTATCCATAAATG [CACACA_site5308]”, the “gcPBM binding intensity (ln)” value falls from 11.6 ± 0.93 to 10.3 ± 0.18.

Compared with “ATATCCCATATGTAATGTACTTACACTTTCTTAATT [XGTACX_site7020]”, “TATAAAAAGGAAAAATAAAAATAAAAATAAAAATTA [CACACA_negctrl_site1822]” is lower in “gcPBM binding intensity (ln)” value: 11.2 ± 0.75 for the first, 9.48 ± 0.18 for the second.

TCTTTTAAAAATTAAGTGCATGTCCTTATAACAAAA and “AGGGAATAATATTAATGTACATATATGAACTTGTTT [XGTACX_site6089]” are within error of each other in “gcPBM binding intensity (ln)” value: 10.8 ± 0.67 for the first, 11.1 ± 0.57 for the second.

“ATATATAACTTTTCTTAACACACAAAAAACAAAAAT [CACACA_site8748]” and “TCATAAACATTATGCACACAAAAATAAAAAAAAATA [CACACA_site1115]” are within error of each other in “gcPBM binding intensity (ln)” value: 10.2 ± 0.25 for the first, 10.1 ± 0.18 for the second.

“AAAAAAATAATGTACACACACATATCTGTTTATATA [CACACA_site4270]” and “ATATTTATATATATATGTACATATGTGTGTTTTTAT [XGTACX_site3956]” are within error of each other in “gcPBM binding intensity (ln)” value: 11.4 ± 0.83 for the first, 10.9 ± 0.51 for the second.

First: CGAACAAACAAATAAACACACAAAAAAAGATATATA [CACACA_site6944]
Second: AGATATATTATTAGGTGTACTATAAAATAAATTCAC [XGTACX_site221]
The “gcPBM binding intensity (ln)” value of the first is lower: 9.84 ± 0.14 for the first, 11.4 ± 0.94 for the second.

First: AAAAAAAATTAGGAAACATGCATGTCCCGATAAATA [TGCATGCA_site149]
Second: GTACACTAATTATGTGCACACAAATTAAAGGTCTAC [CACACA_site146]
The “gcPBM binding intensity (ln)” value of the first is lower: 10.28 ± 0.049 for the first, 11.3 ± 0.49 for the second.

ATAATAAAATGGAGAGTGCATACATGTTTATTTTAT and “AAAATCAAGTAGTATAAAGTAAGTATCATAAAAATA [CACACA_negctrl_site1554]” are within error of each other in “gcPBM binding intensity (ln)” value: 10.2 ± 0.13 for the first, 10.3 ± 0.16 for the second.

Going from “AAATTTACAATACATTGTACATATTAATAATATTCC [XGTACX_site3646]” to “AGACATAAGATAATTACACACAATACATCCCTATAT [CACACA_site2227]”, the “gcPBM binding intensity (ln)” value falls from 10.9 ± 0.49 to 9.86 ± 0.14.

“TACTTCTACAAGAGAAGTACAATATTTTTTATATTA [XGTACX_site8351]” and “AATAAAAATTTACTTTGTACACATATTAAATTCAAT [XGTACX_site1957]” are within error of each other in “gcPBM binding intensity (ln)” value: 11.3 ± 0.81 for the first, 11.2 ± 0.81 for the second.

Going from “TTACTCATGAAAGATACACACATTCATTATATATAT [CACACA_site3252]” to “TATATAAACCCGTACACACACATATATGTATATATA [CACACA_site3507]”, the “gcPBM binding intensity (ln)” value rises from 9.97 ± 0.11 to 11.6 ± 0.95.
